In paper PMC4336329 (PLoS ONE, 2015):
Out of some 310,000 compounds screened, about 14,000 (4.5%) showed an effect of 50% or more. The effect is printed as a negative number. The list shows a part of the results.

These compounds were tested against human ether-à-go-go-related gene (hERG) potassium channel (human, UniProt Q12809) (assay: primary screen, population patch clamp on CHO cells stably expressing hERG).
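Further: peak tail current of the secondary pulse compared with the same well before compound.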

Sequence of human ether-à-go-go-related gene (hERG) potassium channel (Q12809 whole entry, looked up): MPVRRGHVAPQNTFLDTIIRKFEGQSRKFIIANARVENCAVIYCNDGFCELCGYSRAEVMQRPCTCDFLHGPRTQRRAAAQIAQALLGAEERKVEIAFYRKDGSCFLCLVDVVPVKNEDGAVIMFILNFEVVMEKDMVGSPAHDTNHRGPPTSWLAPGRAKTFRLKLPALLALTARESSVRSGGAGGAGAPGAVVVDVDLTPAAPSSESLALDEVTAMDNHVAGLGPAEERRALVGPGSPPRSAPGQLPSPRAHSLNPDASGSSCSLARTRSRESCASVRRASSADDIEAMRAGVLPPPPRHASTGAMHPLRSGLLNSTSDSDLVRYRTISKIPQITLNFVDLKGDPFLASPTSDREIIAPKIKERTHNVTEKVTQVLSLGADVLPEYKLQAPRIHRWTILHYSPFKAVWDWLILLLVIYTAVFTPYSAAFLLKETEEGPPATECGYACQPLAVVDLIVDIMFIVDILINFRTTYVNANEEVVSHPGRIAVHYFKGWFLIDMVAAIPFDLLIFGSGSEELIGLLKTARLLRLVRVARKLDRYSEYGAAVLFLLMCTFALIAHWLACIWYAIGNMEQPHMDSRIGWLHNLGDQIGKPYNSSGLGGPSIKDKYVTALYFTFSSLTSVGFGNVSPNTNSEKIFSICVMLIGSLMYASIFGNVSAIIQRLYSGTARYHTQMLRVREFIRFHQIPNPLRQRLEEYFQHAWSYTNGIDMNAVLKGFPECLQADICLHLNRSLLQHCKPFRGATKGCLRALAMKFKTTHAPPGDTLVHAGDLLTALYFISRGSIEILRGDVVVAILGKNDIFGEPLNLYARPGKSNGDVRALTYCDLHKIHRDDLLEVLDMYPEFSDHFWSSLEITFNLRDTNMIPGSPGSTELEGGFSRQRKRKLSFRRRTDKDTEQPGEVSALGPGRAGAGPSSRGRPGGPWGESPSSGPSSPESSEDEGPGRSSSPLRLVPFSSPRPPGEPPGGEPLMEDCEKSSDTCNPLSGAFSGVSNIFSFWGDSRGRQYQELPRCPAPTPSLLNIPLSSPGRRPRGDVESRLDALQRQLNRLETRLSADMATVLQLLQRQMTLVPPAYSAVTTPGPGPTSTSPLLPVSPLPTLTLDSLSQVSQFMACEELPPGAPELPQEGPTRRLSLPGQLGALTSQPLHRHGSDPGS

How did the “hERG current change (%, negative = inhibition) at 10uM” value turn out when `Cc1cccc(N(C(=O)CCC(=O)Nc2cc(C)on2)C(C(=O)NC2CCCC2)c2ccccc2)c1` (stereo not shown) was run?
The value was 13.7%.

Which “hERG current change (%, negative = inhibition) at 10uM” value does the source give for `O=C(Nc1nccs1)c1ccc(Br)cc1` here?
Its value is 12.1%.

How did the “hERG current change (%, negative = inhibition) at 10uM” value turn out when `CCn1cc(CNC(=O)c2cc(COc3ccc(F)cc3F)on2)cn1` was run?
Its value is -5.98%.

With `COc1cccc(-c2c(C(=O)N/N=C/c3ccco3)nnn2-c2nonc2N)c1` as the compound, how does the “hERG current change (%, negative = inhibition) at 10uM” value read?
The value was 7.22%.

With `CSc1sc(-c2ccnc(SCC(=O)C(C)(C)C)n2)c2c1C(=O)CC(C)(C)C2` as the compound, how does the “hERG current change (%, negative = inhibition) at 10uM” value read?
Its value is 10.8%.

How did the “hERG current change (%, negative = inhibition) at 10uM” value turn out when `CCCCN1C2=C(C(=O)CCC2)C(c2ccc(Cl)c(Cl)c2)C2=C1c1ccccc1C2=O` (stereo not shown) was run?
Its value is 18.1%.

Which “hERG current change (%, negative = inhibition) at 10uM” value does the source give for `Cc1ccc(CS(=O)(=O)Cc2ccc(C(=O)NC3CC3)o2)cc1` here?
Its value is 7.4%.

For `CCn1cc(C(=O)NCC(=O)OC)c2cc(OC)c(OC)cc2c1=O`, which “hERG current change (%, negative = inhibition) at 10uM” value is on record?
The value was -0.272%.

`O=C1c2ccccc2C(=O)N1CCCOCc1c[nH]c(=O)[nH]c1=O` was tested. Which “hERG current change (%, negative = inhibition) at 10uM” value did it give?
The value was 11.8%.

With `O=C(O)C(Cc1ccc(F)cc1)c1ccccc1` (stereo not shown) as the compound, how does the “hERG current change (%, negative = inhibition) at 10uM” value read?
Its value is 13.4%.

`C#CCOC(=O)Nc1cnccc1C(F)(F)F` was tested. Which “hERG current change (%, negative = inhibition) at 10uM” value did it give?
The value was 5.49%.

With `Cc1ccc(NS(=O)(=O)c2cc(C(=O)Nc3cccc(N(C)S(C)(=O)=O)c3)ccc2C)c(C)c1` as the compound, how does the “hERG current change (%, negative = inhibition) at 10uM” value read?
The value was 11.2%.

How did the “hERG current change (%, negative = inhibition) at 10uM” value turn out when `CCOC(=O)c1cc(C)n(-c2c(C)n(C)n(-c3ccccc3)c2=O)c1C` was run?
The value was 21.6%.

`CN(Cc1cccs1)C(=O)C1CCN(S(=O)(=O)c2ccccc2)CC1` was tested. Which “hERG current change (%, negative = inhibition) at 10uM” value did it give?
The value was -23.8%.

For `O=C(Nc1cccc(C(F)(F)F)c1)OCCN1CCN(Cc2ccccc2)CCC1=O`, which “hERG current change (%, negative = inhibition) at 10uM” value is on record?
Its value is -49.9%.

With `Cc1ccc(Nc2nnns2)cc1` as the compound, how does the “hERG current change (%, negative = inhibition) at 10uM” value read?
The value was 18%.

Which “hERG current change (%, negative = inhibition) at 10uM” value does the source give for `COc1cccc(OC)c1C(=O)N=c1sc2cc(S(C)(=O)=O)ccc2n1C` here?
Its value is 8.26%.

Which “hERG current change (%, negative = inhibition) at 10uM” value does the source give for `Cc1ccc(NC(=O)C(OC(=O)c2cnc(C)cn2)c2ccccc2)c([N+](=O)[O-])c1` (stereo not shown) here?
Its value is -21.6%.

With `CC(=O)c1ccc(O)c(CC=C(C)C)c1` as the compound, how does the “hERG current change (%, negative = inhibition) at 10uM” value read?
The value was 1.81%.

How did the “hERG current change (%, negative = inhibition) at 10uM” value turn out when `O=C(CCS(=O)(=O)Cc1ccccc1)Nc1ccc2c(c1)OCCO2` was run?
Its value is 17.5%.

How did the “hERG current change (%, negative = inhibition) at 10uM” value turn out when `COc1ccc([C@H]2C=C3CN(C(=O)OC(C)(C)C)S(=O)(=O)[C@H]3C[C@H]2OC(=O)c2cccs2)cc1` was run?
The value was 2.33%.

How did the “hERG current change (%, negative = inhibition) at 10uM” value turn out when `COc1cccc(CNC(=O)CCC2CCCN(C(=O)c3cscn3)C2)c1` (stereo not shown) was run?
The value was 6.49%.

With `COc1ccc(CCNC(=O)c2cc(S(=O)(=O)N3CCOCC3)ccc2F)cc1` as the compound, how does the “hERG current change (%, negative = inhibition) at 10uM” value read?
The value was -18%.

For `CCOc1ccc(S(=O)(=O)N2CCN=C2c2ccccc2)cc1`, which “hERG current change (%, negative = inhibition) at 10uM” value is on record?
The value was -15.9%.

`O=C(NNC(=S)NC(=O)C12CC3CC(CC(C3)C1)C2)c1ccncc1` was tested. Which “hERG current change (%, negative = inhibition) at 10uM” value did it give?
The value was 19.8%.

How did the “hERG current change (%, negative = inhibition) at 10uM” value turn out when `COc1ccc([C@H]2CC(=O)C=C(c3cccc(C(C)C)c3)C2)cc1` was run?
Its value is -2.79%.

`COc1ccc(NC(=O)C2CCN(c3cnccn3)CC2)cc1Cl` was tested. Which “hERG current change (%, negative = inhibition) at 10uM” value did it give?
Its value is 7.57%.

With `COC(=O)Cc1ccc(NC(=S)NCc2ccc(Cl)cc2)cc1` as the compound, how does the “hERG current change (%, negative = inhibition) at 10uM” value read?
Its value is -30%.

`Cc1onc(-c2ccccc2Cl)c1C(=O)Nc1ccccc1` was tested. Which “hERG current change (%, negative = inhibition) at 10uM” value did it give?
Its value is -5.01%.

`O=C(Nc1cc(SCCO)cc([N+](=O)[O-])c1)c1ccc(Br)o1` was tested. Which “hERG current change (%, negative = inhibition) at 10uM” value did it give?
Its value is -29.5%.

For `CCC(CC)NC(=O)COC(=O)c1cc(SC)ccc1Cl`, which “hERG current change (%, negative = inhibition) at 10uM” value is on record?
Its value is -0.371%.

With `NC(=O)Cn1c(=O)n(CCCC(=O)NC2CCN(Cc3ccccc3)CC2)c(=O)c2ccccc21` as the compound, how does the “hERG current change (%, negative = inhibition) at 10uM” value read?
The value was -6.48%.

`O=C(c1ccc(C#CC2(O)CCCCC2)cc1)N1CCN(C(c2ccccc2)c2ccccc2)CC1` was tested. Which “hERG current change (%, negative = inhibition) at 10uM” value did it give?
Its value is 20.3%.

With `Cc1cc(C)c(C)c(S(=O)(=O)NCc2ccc(C(=O)N3CCCC3)cc2)c1C` as the compound, how does the “hERG current change (%, negative = inhibition) at 10uM” value read?
The value was 8.62%.

`CNc1nc2cccnc2s1` was tested. Which “hERG current change (%, negative = inhibition) at 10uM” value did it give?
The value was 8.71%.

How did the “hERG current change (%, negative = inhibition) at 10uM” value turn out when `COCCN(C(=O)CC(C)(C)C)c1nnc(-c2cccnc2)s1` was run?
The value was -7.21%.

For `COC(=O)c1ccc(N2CCc3ccccc32)c([N+](=O)[O-])c1`, which “hERG current change (%, negative = inhibition) at 10uM” value is on record?
The value was 10.5%.

Which “hERG current change (%, negative = inhibition) at 10uM” value does the source give for `C[C@@H]1C(=O)O[C@@H]2CC34[C@H]5C[C@@H](C(C)(C)C)C36[C@H](OC(=O)[C@@H]6O)OC4(C(=O)O5)[C@@]12O` (stereo partly shown) here?
The value was 15.2%.

Which “hERG current change (%, negative = inhibition) at 10uM” value does the source give for `Nc1nc(-c2ccccc2)cc(-c2ccccc2O)n1` here?
The value was 0.93%.

How did the “hERG current change (%, negative = inhibition) at 10uM” value turn out when `O=C1SCC(c2ccc(Cl)cc2Cl)=NN1Cc1nnc(-c2ccccc2)o1` was run?
Its value is 1.48%.

How did the “hERG current change (%, negative = inhibition) at 10uM” value turn out when `CCOc1ccc(OCC)c(NC(=O)C2CCN(c3ncccn3)CC2)c1` was run?
The value was -30%.

`CS(=O)(=O)N(CC(=O)N1CCOCC1)c1cc(C(F)(F)F)ccc1Cl` was tested. Which “hERG current change (%, negative = inhibition) at 10uM” value did it give?
The value was 13.6%.

For `O=C(CSCc1ccc(Cl)cc1)NN=C1CCCC1`, which “hERG current change (%, negative = inhibition) at 10uM” value is on record?
Its value is -13.6%.

Which “hERG current change (%, negative = inhibition) at 10uM” value does the source give for `O=C(COc1coc(CN2CCN(c3ccccc3)CC2)cc1=O)NCC1CCCO1` (stereo not shown) here?
The value was 10.7%.

Which “hERG current change (%, negative = inhibition) at 10uM” value does the source give for `Cc1cc2cc(CN(Cc3cccs3)Cc3nnnn3CC3CCCO3)c(=O)[nH]c2cc1C` (stereo not shown) here?
The value was -14.8%.

For `CCCc1cc(=O)oc2c(C)c(OCC(=O)N3CCC(C(=O)O)(c4ccccc4)CC3)ccc12`, which “hERG current change (%, negative = inhibition) at 10uM” value is on record?
The value was -0.856%.

`Cc1cc(NC(=O)Nc2cc(Cl)sc2Cl)no1` was tested. Which “hERG current change (%, negative = inhibition) at 10uM” value did it give?
The value was 23.9%.

How did the “hERG current change (%, negative = inhibition) at 10uM” value turn out when `CC(C)NC(=O)COC(=O)c1ccccc1Oc1ccccc1` was run?
The value was -15.9%.

With `CCOc1ccc(C(C(=O)Nc2ccc(F)cc2)N(C(=O)Cn2nnc3ccccc32)C2CC2)cc1` (stereo not shown) as the compound, how does the “hERG current change (%, negative = inhibition) at 10uM” value read?
The value was -50.3%.

For `CC(/C=C/c1ccccc1)=N\NC(=O)CSc1ccccn1`, which “hERG current change (%, negative = inhibition) at 10uM” value is on record?
The value was -29.1%.

For `Cc1ccccc1CN1CCN(CC(=O)NCc2ccco2)C1=O`, which “hERG current change (%, negative = inhibition) at 10uM” value is on record?
Its value is 10.8%.

For `N#CCCN1CCN(C(=S)c2ccc(-c3cc(Cl)ccc3Cl)o2)CC1`, which “hERG current change (%, negative = inhibition) at 10uM” value is on record?
Its value is -12.3%.

How did the “hERG current change (%, negative = inhibition) at 10uM” value turn out when `CCC1CCc2sc(C(=O)NCC(c3ccccc3OC)N3CCCC3)cc2C1` (stereo not shown) was run?
Its value is -63.6%.

With `O=C(CCn1c(=S)oc2ccccc21)N1CCN(c2ccc(F)cc2)CC1` as the compound, how does the “hERG current change (%, negative = inhibition) at 10uM” value read?
The value was -25.3%.

Which “hERG current change (%, negative = inhibition) at 10uM” value does the source give for `Cc1ccccc1Cn1cc(CCC(=O)N2CCOCC2)c2ccccc21` here?
Its value is -17.2%.
